From PubChem BioAssay AID1963576 (National Center for Advancing Translational Sciences (NCATS), 2024)
The campaign covered roughly 46,000 compounds. About 60 (0.1%) were called active. Another 3% or so got no clear call; they are omitted. The call rests on the fitted dose curve; in most records, active means well fitted inhibition curve with a large enough effect; inconclusive means small, poorly fitted or top-dose-only effect; inactive means no such curve, though single readings can be large or run the other way. Some of the results follow.

assay: Primary qHTS assay for Inhibitors of ovarian cancer metastasis using an organotypic tumor microenvironment (TME) model.; further: nearly all actives have a fitted effect of over 65% in size;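 on activity change, negative = inhibition: plate controls were DMSO wells for no effect and tomatine positive control wells for full effect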; details: SKOV3ip1-GFP adhesion/invasion on 3D omental model, fluorescence; series mostly up to 45.8 µM; activity change, negative = inhibition: at the top concentration
How it was run: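 qHTS, 4-pt dose (0.36-46 umol/L); SKOV3ip1-GFP, 1,200 cells/well, no FBS; primary omental fibroblast/mesothelial co-culture 48 h pre-grown; 2 h RT + 16 h 37 C; PBS wash, 4% PFA; GFP count 488/509 nm.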

Activity change, negative = inhibition, inactive:
Cc1ccccc1CNC(=O)c1ccc(-c2nc(CS(=O)(=O)c3ccccc3)c(C)o2)cc1 -8.85%
Cc1ccc(-c2c(C(=O)NCc3ccccc3)oc(=O)c3ccccc23)cc1 2.99%
COc1cc(NC(=O)c2cc(Cl)c(OC)c(Cl)c2)ccc1NC(=O)c1cc2ccccc2o1 1.25%
CCc1cccc(C)c1NC(=O)c1cc(C)nc2c1c(C)nn2-c1cccc(Cl)c1C -7.7%
COc1ccc(C)cc1NC(=O)CN(c1cc(C(F)(F)F)ccc1Cl)S(C)(=O)=O 7.42%
CC(=O)c1c(C)oc2ccc(N(C(=O)Oc3ccccc3)S(=O)(=O)c3ccc(C(C)(C)C)cc3)cc12 15.4%
CN1c2ccccc2-c2nc(SCC(=O)Nc3ccccc3C(F)(F)F)ncc2S1(=O)=O -0.658%
Cc1ccc(CN2CCCn3nc(C(=O)NCCc4ccc(Cl)cc4)cc3C2=O)cc1 -7.77%
COc1ccc2c(c1)-c1nc(NC(=O)c3cc(Cl)ccc3OC)sc1CC2 -7.08%
CCN(Cc1ccccc1)C(=O)Cn1c(=O)n(Cc2ccccc2)c(=O)c2c1c1cc(OC)ccc1n2C 7.84%
Cc1ccc(CSc2nc3ccc(NC(=O)C(C)C)cc3s2)cc1 -8.71%
CCc1nn2c(=O)c(S(=O)(=O)Nc3ccc(OC)c(Cl)c3)c(C)nc2s1 -23.2%
Cc1ccc2c(=O)cc(CSc3ccccc3)[nH]c2c1C -4.99%
Cc1ccc(CSCC(=O)N2CCN(c3ccc(F)cc3)CC2)cc1 -0.811%
CC(C)c1ccc(S(=O)(=O)c2nnn3c2nc(NC2CCCC2)c2sccc23)cc1 -0.725%
COc1ccc(OC)c(NC(=O)c2c(NCc3ccc(C)o3)sc3c2CCC(C)C3)c1 (stereo unspecified) -24.1%
Cc1cccc(N(CC(=O)Nc2ccc(Br)cc2)S(C)(=O)=O)c1C 0.168%
O=C(C1CCC(Cn2c(=O)c3sccc3n(Cc3cccc(F)c3)c2=O)CC1)N1CCOCC1 (stereo unspecified) 1.62%

outcome, inactive:
COC(=O)c1cc(NC(=O)Cn2nc(C)n3cccc3c2=O)cc(C(=O)OC)c1
COc1ccccc1CNC(=O)CCn1c(=O)c2ccccc2n(CC(=O)Nc2ccc(C)cc2C)c1=O
Cc1cc(OC(=O)c2cc(-c3ccc4c(c3)OCCO4)on2)ccc1Cl
COc1ccc(C(CC(=O)Nc2ccc(C)c(C)c2)N2Cc3ccccc3C2=O)cc1OC (stereo unspecified)
CC(=O)c1cccc(S(=O)(=O)NCCc2csc3nc(-c4ccc(F)cc4)nn23)c1
Cc1nc(CC(=O)Nc2cccc(C)c2C)cs1
COc1ccc(C(=O)NCc2ccc3c(c2)CCN3C(=O)c2ccncc2)cc1
Cc1ccc(Cl)cc1N(C)C(=O)c1cc2c(Cl)nc3ccccc3c2s1
